This passage reports cAMP reporter score and surface expression score results from the GPR68 mutational scans of Howard et al. (2025).

B1: GPR68, Q15743 (parent)
chain: MGNITADNSSMSCTIDHTIHQTLAPVVYVTVLVVGFPANCLSLYFGYLQIKARNELGVYLCNLTVADLFYICSLPFWLQYVLQHDNWSHGDLSCQVCGILLYENIYISVGFLCCISVDRYLAVAHPFRFHQFRTLKAAVGVSVVIWAKELLTSIYFLMHEEVIEDENQHRVCFEHYPIQAWQRAINYYRFLVGFLFPICLLLASYQGILRAVRRSHGTQKSRKDQIQRLVLSTVVIFLACFLPYHVLLLVRSVWEASCDFAKGVFNAYHFSLLLTSFNCVADPVLYCFVSETTHRDLARLRGACLAFLTCSRTGRAREAYPLGAPEASGKSGAQGEEPELLTKLHPAFQTPNSPGSGGFPTGRLA

The variants in data set [1] derive from B1. As to the kind of experiment: cAMP reporter score (Enrich2 score, wild type = 0); higher = more signal; HEK293T, FACS bins.
In data set [2] the parent is B1. As to the kind of experiment: surface expression score (Enrich2 score, wild type = 0); higher = more signal; HEK293T, FACS bins.

Scores whose standard error is large were omitted. The source holds two more conditions with little spread; they are left out. Read del as a deletion of the residues named and ins as an insertion between two positions. For some of these results: How much ogerin was present is not stated here.

On to T64I, for which the cAMP reporter score in data set [1] (pH 5.5) came out at 1.46; in data set [1] (pH 6) it was 5.57; in data set [1] (pH 6, modulator: ogerin), 1.76; in data set [1] (pH 6.5, modulator: ogerin), 3.65. Also, in data set [2], the surface expression score was found to be 0.411.

As for T64A, the cAMP reporter score in data set [1] (pH 5.5) was found to be 0.062; in data set [1] (pH 6) it was 4.18; in data set [1] (pH 6.5, modulator: ogerin), 5.36. Also, the surface expression score in data set [2] is -0.349.

Turning to T64G, the cAMP reporter score was 1.16 in data set [1] (pH 5.5); 3.49 in data set [1] (pH 6); 0.425 in data set [1] (pH 6, modulator: ogerin). The surface expression score in data set [2] turned out to be 0.469.

As to T64K, the cAMP reporter score is -0.069 in data set [1] (pH 5.5); -0.178 in data set [1] (pH 6); -0.981 in data set [1] (pH 6, modulator: ogerin); -0.916 in data set [1] (pH 6.5, modulator: ogerin). In addition, in data set [2], the surface expression score was -2.5.

As to T64Y, the cAMP reporter score in data set [1] (pH 5.5) is 0.152; in data set [1] (pH 6) it was 0.655; in data set [1] (pH 6, modulator: ogerin) it was 0.55; in data set [1] (pH 6.5, modulator: ogerin), 1.77. In addition, in data set [2], the surface expression score came to 1.23.

Take T64D: the cAMP reporter score was -1.04 in data set [1] (pH 5.5); -1.86 in data set [1] (pH 6); -0.851 in data set [1] (pH 6, modulator: ogerin); -0.258 in data set [1] (pH 6.5, modulator: ogerin).

In the case of T64Q, the cAMP reporter score in data set [1] (pH 5.5) was -0.555; in data set [1] (pH 6), -0.469; in data set [1] (pH 6, modulator: ogerin) it was -0.338; in data set [1] (pH 6.5, modulator: ogerin) it was -0.752. Besides, in data set [2], the surface expression score is -0.462.

On to V81_Q83del, for which the cAMP reporter score is -1.28 in data set [1] (pH 5.5); 0.002 in data set [1] (pH 6); -0.909 in data set [1] (pH 6, modulator: ogerin); -0.398 in data set [1] (pH 6.5, modulator: ogerin). Moreover, in data set [2], the surface expression score was determined as 0.038.

On to L78_Q79del, for which the cAMP reporter score in data set [1] (pH 5.5) was -1.1; in data set [1] (pH 6), -0.925; in data set [1] (pH 6, modulator: ogerin), -0.482; in data set [1] (pH 6.5, modulator: ogerin), -0.391. In addition, the surface expression score in data set [2] was -0.19.

For the variant L60S, the cAMP reporter score is -1.72 in data set [1] (pH 5.5); -0.714 in data set [1] (pH 6); -0.391 in data set [1] (pH 6, modulator: ogerin). Besides, the surface expression score in data set [2] is -2.4.

In the case of L60G, the cAMP reporter score in data set [1] (pH 5.5) was -1.48; in data set [1] (pH 6, modulator: ogerin) it was -1.3; in data set [1] (pH 6.5, modulator: ogerin) it was 0.045.

Turning to L60W, the cAMP reporter score is -0.243 in data set [1] (pH 5.5); -0.619 in data set [1] (pH 6); 0.48 in data set [1] (pH 6.5, modulator: ogerin). The surface expression score in data set [2] is -1.41.

Take L60C: the cAMP reporter score is -0.21 in data set [1] (pH 5.5); -1.04 in data set [1] (pH 6, modulator: ogerin); -0.385 in data set [1] (pH 6.5, modulator: ogerin). For the same variant, the surface expression score in data set [2] is -2.02.

L60E: the cAMP reporter score is -0.802 in data set [1] (pH 5.5); -0.574 in data set [1] (pH 6); -1.4 in data set [1] (pH 6.5, modulator: ogerin). Further, in data set [2], the surface expression score was -2.32.

For L60D, the cAMP reporter score is -1.32 in data set [1] (pH 5.5); -1.03 in data set [1] (pH 6); -1.79 in data set [1] (pH 6, modulator: ogerin); -1.13 in data set [1] (pH 6.5, modulator: ogerin). Moreover, the surface expression score in data set [2] is -1.76.

Turning to L60Y, the cAMP reporter score in data set [1] (pH 5.5) was -0.385. The surface expression score in data set [2] was -0.424.

Turning to L60T, the cAMP reporter score in data set [1] (pH 5.5) is -0.954; in data set [1] (pH 6), -0.439; in data set [1] (pH 6, modulator: ogerin), -2.23. Moreover, the surface expression score in data set [2] was -2.74.

On to L60A, for which the cAMP reporter score in data set [1] (pH 5.5) was 1.19; in data set [1] (pH 6, modulator: ogerin), -0.12; in data set [1] (pH 6.5, modulator: ogerin), -0.698. Besides, in data set [2], the surface expression score is -2.82.

Consider L60M, for which the cAMP reporter score in data set [1] (pH 5.5) was 0.125; in data set [1] (pH 6) it was 0.832; in data set [1] (pH 6, modulator: ogerin) it was -0.828; in data set [1] (pH 6.5, modulator: ogerin), -0.215. Also, the surface expression score in data set [2] is -0.22.

For the variant L60P, the cAMP reporter score in data set [1] (pH 5.5) is -1.16; in data set [1] (pH 6), -1.01; in data set [1] (pH 6, modulator: ogerin), -0.779; in data set [1] (pH 6.5, modulator: ogerin) it was -1.24. Besides, in data set [2], the surface expression score was -2.42.

L60I: the cAMP reporter score in data set [1] (pH 5.5) turned out to be 1.05; in data set [1] (pH 6) it was 4.59; in data set [1] (pH 6, modulator: ogerin), 0.734; in data set [1] (pH 6.5, modulator: ogerin) it was 2.88. In addition, the surface expression score in data set [2] was 1.16.

Regarding L60R, the cAMP reporter score in data set [1] (pH 5.5) is -0.482; in data set [1] (pH 6, modulator: ogerin) it was 0.29.

On to L60N, for which the cAMP reporter score was -1.89 in data set [1] (pH 5.5); -1.95 in data set [1] (pH 6); -0.939 in data set [1] (pH 6, modulator: ogerin); 0.175 in data set [1] (pH 6.5, modulator: ogerin). The surface expression score in data set [2] was -2.04.

For the variant L60H, the cAMP reporter score was 0.078 in data set [1] (pH 5.5); 1.43 in data set [1] (pH 6); -0.132 in data set [1] (pH 6, modulator: ogerin); 0.056 in data set [1] (pH 6.5, modulator: ogerin). The surface expression score in data set [2] was -2.48.

Take L60Q: the cAMP reporter score in data set [1] (pH 5.5) was -0.525; in data set [1] (pH 6) it was 1.5; in data set [1] (pH 6, modulator: ogerin), -1.33; in data set [1] (pH 6.5, modulator: ogerin) it was -0.875. Further, the surface expression score in data set [2] is -2.34.

In the case of L60V, the cAMP reporter score worked out at 0.112 in data set [1] (pH 5.5); 1.8 in data set [1] (pH 6); 0.064 in data set [1] (pH 6, modulator: ogerin); 1.65 in data set [1] (pH 6.5, modulator: ogerin). Besides, in data set [2], the surface expression score was -2.21.

For L60F, the cAMP reporter score in data set [1] (pH 5.5) was -0.044; in data set [1] (pH 6) it was 0.508; in data set [1] (pH 6, modulator: ogerin), -1.02; in data set [1] (pH 6.5, modulator: ogerin), -0.905. Further, in data set [2], the surface expression score was 0.05.

In the case of L60K, the cAMP reporter score is -0.83 in data set [1] (pH 5.5); -0.998 in data set [1] (pH 6); -0.627 in data set [1] (pH 6.5, modulator: ogerin). Also, the surface expression score in data set [2] is -1.78.

Take Y80_V81insGS: the cAMP reporter score in data set [1] (pH 5.5) was -1.73; in data set [1] (pH 6), -1.42; in data set [1] (pH 6, modulator: ogerin) it was -1.58; in data set [1] (pH 6.5, modulator: ogerin) it was -0.903. The surface expression score in data set [2] was -1.13.

F69_Y70del: the cAMP reporter score in data set [1] (pH 5.5) is -1.68; in data set [1] (pH 6) it was 0.063; in data set [1] (pH 6, modulator: ogerin), -1.1; in data set [1] (pH 6.5, modulator: ogerin) it was -0.607.

With Y80_V81insGSG, the cAMP reporter score in data set [1] (pH 5.5) was -1.91; in data set [1] (pH 6, modulator: ogerin) it was -1.04; in data set [1] (pH 6.5, modulator: ogerin), -1.75. The surface expression score in data set [2] was -2.11.

On to C72_S73insGSG, for which the cAMP reporter score is -1.16 in data set [1] (pH 5.5) and -0.985 in data set [1] (pH 6.5, modulator: ogerin). Moreover, the surface expression score in data set [2] was -3.85.

Y70_I71insGS: the cAMP reporter score in data set [1] (pH 5.5) is -2.02; in data set [1] (pH 6), -1.3; in data set [1] (pH 6, modulator: ogerin) it was -0.931; in data set [1] (pH 6.5, modulator: ogerin), -0.12. Besides, in data set [2], the surface expression score is -2.25.

As to F76_L78del, the cAMP reporter score in data set [1] (pH 5.5) is -1.38; in data set [1] (pH 6), -0.509; in data set [1] (pH 6, modulator: ogerin), -2.16; in data set [1] (pH 6.5, modulator: ogerin) it was -0.754. In addition, the surface expression score in data set [2] is -2.8.
